Measurements from the supplement of paper PMC12217912.
The other results are listed elsewhere or left out. Sequences were assembled here from the parent chain. Inactive controls read about 0.05.

B1: TEV protease; numbered along this chain (parent)
chain: MGESLFKGPRDYNPISSSICHLTNESDGHTTSLYGIGFGPFIITNKHLFRRNNGTLVVQSLHGVFKVKDTTTLQQHLVDGRDMIIIRMPKDFPPFPQKLKFREPQREERICLVTTNFQTKSMSSMVSDTSCTFPSGDGIFWKHWIQTKDGQCGSPLVSTRDGFIVGIHSASNFTNTNNYFTSVPKNFMELLTNQEAQQWVSGWRLNADSVLWGGHKVFMVKPEEPFQPVKEATQL

Variants of: B1
Experiment: raw area under fraction-flipped curve 0-4 h after induction (AUC4h, not background-subtracted), DNA-recorder readout of cleavage of the substrate (dimensionless); higher = more cleavage of the substrate by the protease variant
Details: temperature: 34 °C; time window: 0-4 h after rhamnose induction
Description: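 In vivo DNA recorder in E. coli TOP10(DE3) ΔrhaA at 34 °C. Each TEVp single-site mutant (parent TEVp 0) is paired with a single-site variant of the 7-mer TEVs (canonical ENLYFQ|S). The substrate sits between flexible linkers in a Bxb1-sfGFP-TEVs-SsrA fusion, so cleavage stabilises Bxb1 and speeds flipping of a recombination array, read by NGS. The value is the raw area under the fraction-flipped curve over 0-4 h after rhamnose induction (AUC4h), with ≥20 reads per time point. It is not background-subtracted; inactive controls average about 0.047.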
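Also: Bxb1 expression induced with 0.2% (w/v) L-rhamnose at OD600 near 0.5, cultures sampled hourly, flipped fraction per protease–substrate barcode pair counted by paired-end Illumina sequencing.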

| Variant | area with substrate ENLYFQD | area with substrate ENLYFQF | area with substrate ENLYFQG | area with substrate ENLYFQH | area with substrate ENLYFQI | area with substrate ENLYFQK | area with substrate ENLYFQL | area with substrate ENLYFQM | area with substrate ENLYFQN | area with substrate ENLYFQQ |
| --- | --- | --- | --- | --- | --- | --- | --- | --- | --- | --- |
| F65K | 0.0603 | 0.076 | 0.0889 | 0.0646 | 0.052 | 0.0733 | 0.0559 | 0.0579 | 0.0764 | 0.0449 |
| P89T |  |  | 0.0868 |  |  |  |  |  | 0.0997 |  |
| P89K | 0.0957 |  | 0.0683 |  |  | 0.0582 |  | 0.0532 | 0.0735 | 0.064 |
| E3K | 0.0713 | 0.081 |  |  | 0.0638 | 0.0682 |  | 0.102 |  |  |
| G213P | 0.0658 | 0.0486 |  |  |  |  |  |  |  |  |
| F226L | 0.0604 | 0.0569 | 0.109 | 0.0928 | 0.062 | 0.0611 | 0.071 | 0.117 | 0.0817 |  |
| F226P |  |  |  |  |  |  | 0.0499 |  |  |  |
| P228T | 0.0389 |  |  |  | 0.0822 | 0.0692 |  | 0.0958 | 0.0889 |  |
| Q59E |  | 0.0801 |  | 0.0751 | 0.0676 |  | 0.0728 | 0.0809 |  |  |
| G214I |  |  | 0.08 |  | 0.0614 | 0.0711 | 0.0376 | 0.0474 | 0.0829 | 0.0809 |
| G214T |  | 0.0838 | 0.0961 | 0.0694 |  |  |  |  | 0.0548 |  |
| P134A |  |  | 0.0915 |  | 0.0487 |  | 0.0536 |  |  |  |
| T181N |  | 0.0552 |  |  |  |  |  |  |  |  |
| Q75G |  |  | 0.0828 |  | 0.0309 |  | 0.0556 | 0.0528 |  |  |
| W203F |  | 0.0537 |  | 0.0612 |  | 0.0523 | 0.0536 | 0.0834 | 0.0597 |  |
| R50S | 0.0398 | 0.0861 |  | 0.0899 |  |  | 0.0599 |  |  | 0.0669 |
| L235D | 0.0807 |  |  | 0.101 | 0.0642 |  |  |  |  |  |
| L235V | 0.062 |  | 0.0875 |  |  |  |  | 0.0484 | 0.0938 |  |

| Variant | area with substrate ENLYFQD | area with substrate ENLYFQF | area with substrate ENLYFQG | area with substrate ENLYFQH | area with substrate ENLYFQI | area with substrate ENLYFQK | area with substrate ENLYFQL | area with substrate ENLYFQM | area with substrate ENLYFQN | area with substrate ENLYFQQ |
| --- | --- | --- | --- | --- | --- | --- | --- | --- | --- | --- |
| K185D | 0.0686 | 0.0945 |  |  |  |  |  | 0.0901 |  |  |
| E107T |  |  |  |  |  |  | 0.0648 | 0.0954 |  |  |
| D137G |  | 0.0726 | 0.0866 | 0.0773 | 0.0646 | 0.0708 | 0.047 | 0.0714 | 0.0926 |  |
| I139K |  | 0.0739 | 0.0788 | 0.0786 | 0.0544 | 0.0522 | 0.0638 | 0.0319 | 0.109 |  |
| F180T | 0.0673 |  | 0.0414 |  | 0.0537 | 0.0594 | 0.0383 | 0.0408 | 0.0572 |  |
| R102F |  |  | 0.0546 | 0.0476 |  | 0.0528 | 0.0508 | 0.0596 |  |  |
| V157T | 0.061 |  | 0.117 |  |  | 0.0688 | 0.0477 |  |  |  |
| I85Q | 0.0501 |  |  |  |  | 0.052 | 0.0534 |  | 0.0482 |  |
| Q74N |  |  | 0.118 |  |  | 0.0744 | 0.0729 |  |  |  |
| S171W | 0.0623 |  |  |  |  |  |  | 0.0683 |  | 0.0631 |
| S171N | 0.0704 |  |  |  | 0.063 | 0.0702 | 0.0454 | 0.0601 |  | 0.0738 |
| G166Y |  |  | 0.0261 |  |  | 0.0495 | 0.029 |  | 0.0442 |  |
| T233F | 0.0639 | 0.0915 |  | 0.0737 | 0.0764 | 0.0768 | 0.0607 |  | 0.071 | 0.0748 |
| T233I |  | 0.0746 |  | 0.113 | 0.0614 | 0.046 | 0.0423 | 0.0954 | 0.0806 | 0.0572 |
| T233V |  | 0.084 |  |  | 0.0691 | 0.0618 | 0.0608 |  | 0.0709 |  |
| W212I |  |  | 0.13 | 0.0999 | 0.0588 | 0.0639 | 0.072 | 0.113 | 0.105 |  |
| W212T |  |  |  | 0.094 | 0.0677 |  | 0.0585 |  |  |  |
| I167M |  |  | 0.059 |  |  |  | 0.0591 |  |  |  |

Same assay, conditions: temperature: 34 °C; time window: 0-4 h after rhamnose induction

| Variant | area with substrate ENLYFQR | area with substrate ENLYFQS | area with substrate ENLYFQV | area with substrate ENLYFQW | area with substrate ENLYFQE | area with substrate ENLYFQP | area with substrate ENLYFQT | area with substrate ENLYFQY | area with substrate ENLYFQC |
| --- | --- | --- | --- | --- | --- | --- | --- | --- | --- |
| F65K | 0.0652 | 0.101 | 0.0524 | 0.0537 |  |  |  |  |  |
| P89T | 0.0426 | 0.0886 | 0.0747 |  | 0.0342 | 0.0582 | 0.0819 | 0.0643 |  |
| P89K | 0.0523 | 0.0772 | 0.054 | 0.083 |  | 0.0606 | 0.0616 |  |  |
| E3K | 0.0609 | 0.134 |  | 0.0792 |  | 0.0531 | 0.0629 | 0.0712 |  |
| G213P |  | 0.058 |  |  |  | 0.0571 |  |  | 0.0272 |
| F226L | 0.0523 | 0.11 | 0.0056 |  |  | 0.0622 |  | 0.0853 | 0.116 |
| F226P |  | 0.1 |  | 0.0665 |  |  |  |  | 0.107 |
| P228T |  | 0.101 |  |  |  |  | 0.0539 | 0.0753 |  |
| Q59E |  | 0.0973 | 0.0684 |  | 0.0545 |  | 0.0639 | 0.0714 |  |
| G214I |  | 0.08 |  |  |  |  |  |  | 0.092 |
| G214T | 0.0562 | 0.0853 |  |  |  |  |  |  |  |
| P134A | 0.0583 | 0.0959 | 0.0687 |  |  |  | 0.0682 |  |  |
| T181N |  | 0.0681 |  |  |  | 0.0597 | 0.0702 |  |  |
| Q75G |  | 0.0979 | 0.0568 | 0.0506 | 0.0522 | 0.0486 | 0.0631 | 0.0618 |  |
| W203F |  | 0.081 | 0.0592 |  |  | 0.0621 |  |  |  |
| R50S | 0.061 | 0.116 |  | 0.0657 | 0.0759 | 0.05 |  |  |  |
| L235D | 0.0733 | 0.123 |  |  |  |  |  |  |  |
| L235V | 0.0585 | 0.0953 | 0.0811 |  |  |  |  | 0.0856 | 0.127 |
| E231K |  | 0.108 |  |  |  |  |  |  | 0.0927 |

| Variant | area with substrate ENLYFQR | area with substrate ENLYFQS | area with substrate ENLYFQV | area with substrate ENLYFQW | area with substrate ENLYFQE | area with substrate ENLYFQP | area with substrate ENLYFQT | area with substrate ENLYFQY | area with substrate ENLYFQC |
| --- | --- | --- | --- | --- | --- | --- | --- | --- | --- |
| K185D | 0.0639 | 0.108 |  | 0.0581 |  |  |  |  |  |
| E107T | 0.0638 | 0.106 |  | 0.0727 | 0.0649 |  | 0.0712 |  |  |
| D137G |  | 0.0907 | 0.0549 | 0.0496 | 0.0601 |  | 0.0685 | 0.0758 |  |
| I139K | 0.0463 | 0.1 | 0.0563 |  |  |  |  | 0.0662 |  |
| F180T | 0.072 | 0.0557 | 0.0589 |  |  |  |  |  |  |
| R102F |  | 0.0548 |  | 0.0462 |  |  |  | 0.0436 |  |
| V157T | 0.0487 | 0.0912 |  | 0.0637 |  |  |  |  |  |
| I85Q | 0.0451 | 0.056 |  |  |  | 0.0364 | 0.0436 |  |  |
| Q74N |  | 0.116 |  | 0.0548 |  |  |  |  |  |
| S171W | 0.0611 | 0.0576 |  | 0.0528 |  | 0.0508 | 0.0548 | 0.0448 |  |
| S171N | 0.0507 | 0.0687 | 0.0548 | 0.0533 |  |  |  | 0.0514 |  |
| G166Y | 0.0496 | 0.0536 | 0.0454 | 0.0322 |  |  | 0.0292 |  |  |
| T233F | 0.0519 | 0.0925 | 0.0655 | 0.0825 |  |  | 0.058 |  | 0.135 |
| T233I | 0.0567 | 0.0995 |  |  |  | 0.0526 |  |  | 0.103 |
| T233V | 0.0534 | 0.101 |  | 0.0626 |  | 0.0616 |  |  | 0.101 |
| W212I | 0.0472 | 0.137 | 0.0608 |  |  | 0.0996 | 0.0644 |  | 0.166 |
| W212T | 0.0626 | 0.089 | 0.0517 | 0.0424 |  | 0.029 | 0.0769 |  | 0.0714 |
| I167M | 0.052 | 0.0895 | 0.0557 | 0.0611 |  | 0.0484 | 0.0708 | 0.0442 |  |
